Reference: article PMC4336329 (PLoS ONE, 2015)
The whole screen tested about 310,000 compounds, of which about 14,000 (4.5%) showed an effect of 50% or more. The effect is printed as a negative number. This is one part of the list.

Each molecule was assayed against human ether-à-go-go-related gene (hERG) potassium channel (human, UniProt Q12809) (assay: primary screen, population patch clamp on CHO cells stably expressing hERG).
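Note: peak tail current of the secondary pulse compared with the same well before compound.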

Sequence of human ether-à-go-go-related gene (hERG) potassium channel (Q12809 whole entry, looked up): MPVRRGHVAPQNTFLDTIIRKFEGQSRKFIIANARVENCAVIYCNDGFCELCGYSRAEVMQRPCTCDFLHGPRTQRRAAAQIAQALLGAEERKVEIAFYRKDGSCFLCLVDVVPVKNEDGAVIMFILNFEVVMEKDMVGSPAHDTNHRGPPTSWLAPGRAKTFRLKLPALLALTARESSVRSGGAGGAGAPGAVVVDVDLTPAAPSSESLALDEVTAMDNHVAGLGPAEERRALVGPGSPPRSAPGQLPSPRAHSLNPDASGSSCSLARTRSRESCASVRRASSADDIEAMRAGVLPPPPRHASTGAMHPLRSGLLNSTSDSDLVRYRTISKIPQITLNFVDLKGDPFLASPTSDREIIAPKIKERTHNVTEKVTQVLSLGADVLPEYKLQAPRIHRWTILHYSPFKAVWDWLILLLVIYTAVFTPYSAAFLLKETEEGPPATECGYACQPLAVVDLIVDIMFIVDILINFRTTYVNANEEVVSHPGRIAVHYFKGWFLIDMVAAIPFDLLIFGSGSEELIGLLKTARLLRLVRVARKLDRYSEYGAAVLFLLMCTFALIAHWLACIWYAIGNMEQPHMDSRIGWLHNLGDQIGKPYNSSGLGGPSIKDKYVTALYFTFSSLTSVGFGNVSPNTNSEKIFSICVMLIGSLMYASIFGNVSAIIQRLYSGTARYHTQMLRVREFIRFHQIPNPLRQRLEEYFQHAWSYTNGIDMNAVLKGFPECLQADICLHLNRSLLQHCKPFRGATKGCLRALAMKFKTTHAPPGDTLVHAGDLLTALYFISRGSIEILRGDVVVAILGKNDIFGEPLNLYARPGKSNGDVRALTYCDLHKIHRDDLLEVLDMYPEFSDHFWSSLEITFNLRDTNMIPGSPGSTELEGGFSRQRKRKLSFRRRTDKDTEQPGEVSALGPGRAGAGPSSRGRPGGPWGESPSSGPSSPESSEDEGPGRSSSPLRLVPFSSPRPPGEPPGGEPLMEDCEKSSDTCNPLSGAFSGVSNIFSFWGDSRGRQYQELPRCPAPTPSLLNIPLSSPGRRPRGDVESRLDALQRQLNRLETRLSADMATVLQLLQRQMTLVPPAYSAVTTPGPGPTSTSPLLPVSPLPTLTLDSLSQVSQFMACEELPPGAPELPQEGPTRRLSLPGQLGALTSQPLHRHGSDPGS

| SMILES | hERG current change (%, negative = inhibition) at 10uM |
| --- | --- |
| COc1cc2c(cc1OC)C(c1ccc(-c3ccc(Cl)cc3Cl)o1)=NCC2 | 2.19% |
| COc1ccc(S(=O)(=O)NC(C)C(=O)NCC2CCCO2)cc1OC (stereo not drawn) | 23.3% |
| CCOc1ccc([N+](=O)[O-])cc1CNCCc1ccccc1.Cl | -45.5% |
| O=C(O)C1CCCN1C(=O)OCC1c2ccccc2-c2ccccc21 (stereo not drawn) | 10.2% |
| Cn1c(=O)[nH]c2ncn(C)c2c1=O | 4.56% |
| CCCSC1=C(C#N)C(c2ccc(Cl)cc2Cl)CC(=O)N1 (stereo not drawn) | 12.2% |
| CCCC(C)C(=O)Nc1ccncc1 (stereo not drawn) | 8.78% |
| CC(=O)Nc1ccc2c(CSc3nncs3)cc(=O)oc2c1 | -21.5% |
| COc1ccc(OCCNC2CCCC2)cc1 | 0.614% |
| COc1ccc(C)cc1NC(=O)CN1CCN(C/C=C/c2ccccc2)CC1 | -78.3% |
| CC1CC(=O)N(c2ccc(NCc3ccc(Cl)cc3)c([N+](=O)[O-])c2)C1=O (stereo not drawn) | 14% |
| CCn1nc(C(=O)OC2CCOC2=O)c2ccccc2c1=O (stereo not drawn) | 1.38% |
| Cc1cc(CC(C)C)n(-c2nc3ccccc3c(=O)n2OCc2ccccc2)n1 | -7.08% |
| CCc1noc(C)c1C(=O)OCC(=O)N(CCOC)c1c(N)n(Cc2ccccc2)c(=O)[nH]c1=O | 16.7% |
| COc1ccccc1N1CCN(CC(O)c2ccc3cc[nH]c3c2)CC1 (stereo not drawn) | -69.3% |
| CN(C)CC(=O)c1c[nH]c2ccccc12 | 13.8% |
| COCCNC(=O)COc1ccc(Nc2ccccc2)cc1 | -2.91% |
| CCSCc1nc(N)nc(NCCc2ccccc2)n1 | 9.33% |
| O=Cc1ccc(N2CCCC2)c([N+](=O)[O-])c1 | -26.5% |

| SMILES | hERG current change (%, negative = inhibition) at 10uM |
| --- | --- |
| Cc1ccc(NC(=O)CCN2C(=O)C3C4CCC(C4)C3C2=O)cc1Cl (stereo not drawn) | -0.338% |
| COc1cccc(NC2SC(=O)N(c3ccccc3)C2=O)c1 (stereo not drawn) | 10.2% |
| CC(NS(=O)(=O)OCC(Cl)(Cl)Cl)c1ccc(Br)cc1 (stereo not drawn) | 0.818% |
| Cc1ccc(C)c(N2CCN(C(=O)CN(C)S(=O)(=O)c3ccc4c(c3)CCC(=O)N4)CC2)c1 | -41.5% |
| COC(=O)N/N=C/c1cn(CCOc2ccccc2OC)c2ccccc12 | -3.78% |
| Cc1cc(S(=O)(=O)NCC(c2ccccc2)c2ccccc2)ccc1-n1cnnn1 | 0.0665% |
| CCc1nc2cc(C)nn2c2nc3ccccc3n12 | -30.9% |
| COCCn1c(C)cc(/C=C2/SC(=O)N(C(C)C(=O)OC)C2=O)c1C (stereo not drawn) | -35.7% |
| COc1ccc(OCc2cc(C(=O)N(C)Cc3nnc(C)o3)no2)c(Cl)c1 | 8.63% |
| O=C(NCc1ccc(Cl)cc1)c1ccc2ccccc2n1 | 18.5% |
| CC(=O)NC(Cc1c[nH]c2ccccc12)C(=O)N/N=C/c1ccccc1 (stereo not drawn) | 26.2% |
| CC1(C)Oc2ccc(C(=O)NNC(=O)Nc3ccccc3)cc2NC1=O | 8.71% |
| O=[N+]([O-])c1cc(-c2nc(-c3ccncc3)no2)ccc1Cl | -3.98% |
| CCCCc1nc(N2CCN(C(=O)c3ccco3)CC2)c(C#N)c2c1CCCC2 | -5.71% |
| COc1ccc(NS(=O)(=O)c2cccc(C(=O)N(C)Cc3cccs3)c2)cc1 | -3.83% |
| COC(=O)c1c(N2C(=O)[C@H]3[C@@H](C2=O)[C@]2(C(=O)Nc4c(C)cccc42)N2CCC[C@@H]32)sc(C)c1C | -1.93% |
| Cc1cc(=O)oc2cc(OCC3CC(c4ccc(N(C)C)cc4)=NO3)ccc12 (stereo not drawn) | -2.99% |
| CN(Cc1ccccc1)C(=O)CCS(=O)(=O)c1ccc2c(c1)NC(=O)CS2 | -6.49% |
| O=C1NC(=O)C(Nc2cccc3ccccc23)S1 (stereo not drawn) | 7.89% |

| SMILES | hERG current change (%, negative = inhibition) at 10uM |
| --- | --- |
| Cc1cc(C)cc(N(CCC#N)C(=O)CSc2ncnc3sccc23)c1 | -41% |
| CCC(=O)OCc1cc(=O)oc2ccc3ccccc3c12 | 22.3% |
| O=C(OC1CCOC1=O)c1cc(S(=O)(=O)N2CCOCC2)c(Cl)cc1Cl (stereo not drawn) | -3.05% |
| CCN(CC)C(=O)c1cccc(NC(=O)c2ccc3c(=O)n4c(nc3c2)CCC4)c1 | -10.7% |
| CCOC(=O)c1cc(-c2ccccc2)n(CC(=O)N2CCCC2)c1C | 6.12% |
| Cc1ccc(C)n1-c1nnc(N2CCC(C(=O)N3CCN(C)CC3)CC2)s1 | 7.34% |
| CNc1c(N)n(Cc2ccccc2)c(=O)[nH]c1=O | 10.4% |
| O=C(/C=C/c1ccccc1)NCCS(=O)(=O)N1CCN(c2ccccc2F)CC1 | -3.41% |
| Cc1nn(-c2ccccc2)c(C)c1/C=C/C(=O)OCC(=O)Nc1ccc(C(N)=O)cc1 | 17.3% |
| C=CCn1c(CC#N)nnc1N1CCOCC1.Cl | 1.13% |
| O=C(Nc1ccc(Br)cc1F)C1CCCN(S(=O)(=O)c2cnc[nH]2)C1 (stereo not drawn) | -2.49% |
| COc1ccc(N=c2oc3cc(O)ccc3cc2C(=O)NCC2CCCO2)c(OC)c1 (stereo not drawn) | 3.71% |
| CN(C)S(=O)(=O)c1ccc(N2CCCC2)c(C(=O)Nc2nc(-c3ccc(F)c(F)c3)cs2)c1 | 14.4% |
| COc1ccc2c3c([nH]c2c1)C(C)N(CCC(=O)NN)CC3 (stereo not drawn) | 6.86% |
| O=c1oc2cc(OCc3nn[nH]n3)ccc2c2c1CCCC2 | 11.5% |
| CCN(CC)S(=O)(=O)c1ccc(NC(=O)c2cnccn2)cc1 | 7.95% |
| COc1ccc(C2CC23N=C(c2ccccc2)OC3=O)cc1 (stereo not drawn) | -13.2% |
| Cc1ccc(-c2ccc([C@H]3[C@H]4C=CC[C@@H](C)[C@@H]4C(=O)N3Cc3ccccc3)c(F)c2)cc1 | 2.24% |
| O=C(CCn1c(=S)oc2ccccc21)Nc1cc([N+](=O)[O-])ccc1F | 13.5% |
